# Results from the supplement of paper PMC4166925.
# ± gives the standard deviation of the averaged measurements. Over roughly 33,000 sequences, “E-score (dimensionless, -0.5 to 0.5)” has its median near -0.046; the highest 2% begin near 0.36. Some of the results follow.
# System: T1, SpTbr T-box DNA-binding domain (GST fusion)
# T1 sequence: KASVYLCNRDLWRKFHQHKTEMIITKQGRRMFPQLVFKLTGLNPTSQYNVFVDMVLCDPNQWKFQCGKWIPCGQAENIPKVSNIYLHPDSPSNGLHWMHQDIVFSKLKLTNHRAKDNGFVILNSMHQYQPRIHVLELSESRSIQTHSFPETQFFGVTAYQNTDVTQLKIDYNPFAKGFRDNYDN
# Assay: PBM E-score of 8-mer (E-score (dimensionless, -0.5 to 0.5)); Tbr is Tbrain of the sea star Patiria miniata (Pm) or the sea urchin Strongylocentrotus purpuratus (Sp); higher = stronger binding preference; most listed sequences are background and not binding sites
# Conditions: the construct has about 5 more residues each side
# Procedure, shortened: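 GST-fused Tbr T-box DNA-binding domains (the whole T-box plus about five flanking residues) were expressed in BL21 E. coli at 20 °C and purified by glutathione affinity chromatography. Universal Agilent oligonucleotide arrays were made double-stranded by primer extension, incubated with 200 nM protein in PBS (pH 7.5), then scanned and quantified. Every ungapped 8-mer was scored from probe intensities. The Universal PBM Analysis Suite gave each word an enrichment E-score, averaged over duplicate arrays.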
row,Sequence,PBM E-score of 8-mer
1,CGATAGAC,-0.0752 ± 0.021
2,GTCTCCAA,-0.266 ± 0.079
3,CCGACGTA,-0.0853 ± 0.019
4,GTACTAAA,-0.298 ± 0.036
5,CCTCCTAC,0.0318 ± 0.011
6,AATATGGC,-0.028 ± 0.044
7,AGTGCACA,0.144 ± 0.0026
8,CAAAATGC,-0.159 ± 0.029
9,AGCCTGTC,-0.0516 ± 0.049
10,AGGGTTAT,0.0382 ± 0.041
11,CCATGAGA,-0.149 ± 0.0034
12,GCTATGTA,-0.131 ± 0.068
13,GTGGGATA,0.252 ± 0.0076
14,ATCAGTGG,-0.149 ± 0.015
15,ACATTGGG,-0.0454 ± 0.065
16,ATTCTACA,-0.0365 ± 0.019
17,AAATTGGG,-0.0567 ± 0.012
18,AGAGGGCC,-0.194 ± 0.097
19,TACTTAGA,0.112 ± 0.02
20,ACCAGGCA,-0.0942 ± 0.056
21,CTAACGCC,0.339 ± 0.034
22,TACAACCA,-0.19 ± 0.026
23,CTTTTATA,-0.0282 ± 0.055
24,ACGAATCC,-0.112 ± 0.021
25,AGCTCTCC,-0.13 ± 0.019

row,Sequence,PBM E-score of 8-mer
1,CCGCAGTC,-0.204 ± 0.024
2,CCTTACAG,-0.053 ± 0.022
3,TTGATCAA,-0.102 ± 0.13
4,ACGGACGA,-0.259 ± 0.011
5,CAGTAACA,0.0948 ± 0.081
6,CCAAGCCC,-0.178 ± 0.039
7,GTTGCGGA,-0.0654 ± 0.043
8,ATGTTTTA,-0.115 ± 0.0069
9,AGCATCTG,-0.116 ± 0.028
10,TAACCTGA,-0.0659 ± 0.025
11,AGAGAGCC,-0.273 ± 0.027
12,GTCACCAA,0.208 ± 0.011
13,AATGGGGA,-0.233 ± 0.012
14,TGGGGGAA,-0.173 ± 0.013
15,CCACGGTA,-0.151 ± 0.022
16,ACGCGCTG,0.212 ± 0.04
17,GACACAAC,0.237 ± 0.01
18,AAACAGTA,-0.134 ± 0.028
19,GCATATGA,0.0192 ± 0.026
20,AATGGGCG,0.0853 ± 0.015
21,AAGAGTTA,-0.033 ± 0.033
22,CGAGCCTA,-0.0103 ± 0.057
23,CCTTTAGC,0.0867 ± 0.017
24,CATACCGC,0.0954 ± 0.022
25,AGCTCGTG,0.0828 ± 0.036

row,Sequence,PBM E-score of 8-mer
1,GCCTCCAC,-0.0279 ± 0.1
2,ACCGATCC,-0.0589 ± 0.03
3,AAACGTTT,-0.247 ± 0.024
4,CTGCACGA,-0.111 ± 0.086
5,CTGTGCCC,-0.109 ± 0.02
6,AGTGTTCA,0.0725 ± 0.083
7,GAGGAGAC,-0.0414 ± 0.035
8,ACCCGTCC,-0.195 ± 0.011
9,GAAACCAA,-0.048 ± 0.0014
10,AAGCGCGC,0.0762 ± 0.0076
11,ACGTGCTG,0.182 ± 0.014
12,TCCTAGAA,-0.216 ± 0.051
13,ATAGGGCC,-0.189 ± 0.042
14,TCCGGGCA,-0.0678 ± 0.044
15,CCGAGTTC,-0.222 ± 0.058
16,CCTCGATC,-0.0518 ± 0.012
17,CGATACGC,0.0406 ± 0.082
18,CACCAATC,0.221 ± 0.011
19,ACGAGTCT,-0.094 ± 0.033
20,CTGGCAGA,-0.0862 ± 0.012
21,CTACGTCA,-0.0328 ± 0.065
22,CACGTTAG,0.3 ± 0.018
23,GTCAACTA,0.145 ± 0.071
24,ACAGCGGT,0.0363 ± 0.033
25,GGCGTTAA,0.387 ± 0.0042

row,Sequence,PBM E-score of 8-mer
1,ATCACGGA,0.0298 ± 0.035
2,CCGTGTCG,0.146 ± 0.09
3,ACAGAGCC,-0.143 ± 0.019
4,ACTCGATA,0.182 ± 0.058
5,CATCGAAA,-0.181 ± 0.15
6,AATGTCGG,0.012 ± 0.0061
7,CCCCTATA,-0.2 ± 0.056
8,AATACGCG,0.0971 ± 0.084
9,TATCATCA,-0.0576 ± 0.018
10,ATATTGGG,-0.214 ± 0.0041
11,CCAAAGCG,0.136 ± 0.035
12,CATGTCAA,-0.00622 ± 0.077
13,AGTTAACT,-0.241 ± 0.042
14,GAATCAGC,-0.196 ± 0.017
15,AATGACCC,-0.0829 ± 0.0026
16,AGAGCGCG,0.147 ± 0.014
17,ATCTCAAC,0.00654 ± 0.026
18,ACAGGGTG,0.34003 ± 2.1e-05
19,CCCTATTA,-0.181 ± 0.052
20,CAGGCCAA,-0.0765 ± 0.031
21,CAATGAAC,-0.00173 ± 0.023
22,ACACCACG,0.332 ± 0.018
23,CTATCGTA,-0.131 ± 0.048
24,CAATTTTC,-0.0241 ± 0.045
25,AGATCCTC,-0.168 ± 0.027

row,Sequence,PBM E-score of 8-mer
1,ACCATGAG,0.0145 ± 0.03
2,AGGGGGCA,-0.264 ± 0.051
3,CGATCCCA,-0.117 ± 0.069
4,AAGAAACT,-0.00543 ± 0.041
5,ATCTGTTA,0.244 ± 0.028
6,ATTATGGC,-0.0847 ± 0.046
7,CAAAATGA,0.0486 ± 0.062
8,GTGGTATA,-0.0312 ± 0.084
9,AACATAAT,0.0816 ± 0.016
10,CCTTATCC,-0.109 ± 0.027
11,CCCCCTGA,-0.114 ± 0.036
12,ACGAGCAA,-0.0965 ± 0.013
13,CGCCGAAG,-0.157 ± 0.043
14,ACCACTGG,0.0214 ± 0.011
15,GCCCAGGC,-0.187 ± 0.059
16,ACTGCAAT,0.0547 ± 0.048
17,ACTCGCGA,0.3822 ± 0.0018
18,GACGCGCC,0.126 ± 0.12
19,AGCAGCAG,-0.2678 ± 0.0013
20,CGACCACA,0.191 ± 0.044
21,ACAATTCC,-0.113 ± 0.0042
22,ACAACGAA,-0.136 ± 0.041
23,AGCTGGAG,-0.184 ± 0.011
24,ATGCGCCC,-0.24 ± 0.028
25,ATCGTTTA,0.0678 ± 0.1

row,Sequence,PBM E-score of 8-mer
1,CGTTGGGA,-0.121 ± 0.024
2,TGAATAAA,0.07 ± 0.1
3,GACAGTAA,0.171 ± 0.015
4,ATGAAGGG,-0.2 ± 0.029
5,CTACGGAG,-0.282 ± 0.033
6,GCCAGACC,-0.0946 ± 0.049
7,AGGGCTTG,-0.26 ± 0.036
8,CAAGCTAC,-0.147 ± 0.014
9,CGGGATAG,-0.0195 ± 0.046
10,CCCCTAGC,-0.187 ± 0.036
11,GGCACGCA,0.0415 ± 0.024
12,ACAGTAAC,0.143 ± 0.002
13,ACGCGGGG,0.0235 ± 0.015
14,CACTGCTA,0.13 ± 0.011
15,AACTAGTG,0.0896 ± 0.072
16,CGTCCGAG,-0.236 ± 0.0068
17,CAATCCTA,-0.0316 ± 0.041
18,AGTCGGGG,-0.15 ± 0.0087
19,AGACCTAG,-0.262 ± 0.071
20,GGCTGACC,-0.102 ± 0.043
21,ATAGGCGA,0.0635 ± 0.033
22,GATAACCA,-0.0424 ± 0.067
23,CGGTCTAC,-0.0378 ± 0.013
24,AACAATCG,0.0971 ± 0.0099
25,CGTTAGTA,0.152 ± 0.026

row,Sequence,PBM E-score of 8-mer
1,CGACGAGC,-0.127 ± 0.068
2,ACTGGGGC,-0.11 ± 0.024
3,CCTTAAGC,-0.0651 ± 0.0015
4,TCGGAGAA,-0.147 ± 0.071
5,TCGAGCAA,-0.0452 ± 0.042
6,AGGACATG,-0.121 ± 0.05
7,CGGACTTA,-0.29 ± 0.053
8,GACAGGTC,0.19 ± 0.032
9,GCAGGCGA,0.0822 ± 0.01
10,CAGCGTTA,0.122 ± 0.026
11,TAAATAAA,-0.0938 ± 0.088
12,ACTAAGTA,-0.237 ± 0.06
13,AAGGGCGC,0.131 ± 0.0052
14,CCGGCCAC,0.0369 ± 0.11
15,AGGTATGC,-0.00842 ± 0.034
16,CATCTACC,-0.123 ± 0.039
17,ATAGTGCG,0.169 ± 0.021
18,AACACGGA,-0.0154 ± 0.026
19,CAAAAATG,-0.167 ± 0.085
20,AAAGGTTG,0.0806 ± 0.034
21,CCTGACGC,0.248 ± 0.017
22,AGGACAGG,-0.214 ± 0.028
